The IC50 comes from the fitted curve, where viability falls to half of the control; fits outside the tested doses are given as limits. AUC is the area under the same curve over the 256-fold range up to the top dose, as a fraction; it is 1 without any effect and falls as sensitivity rises. For some assays here: The top dose, if marked as inferred, comes from the curve model; the source does not state it. For some assays here: Where an entry number is given, a second screen of the drug exists; the two often differ.
What was measured:
Test in all cases: Viability of human cancer cell lines after 72 h of drug (GDSC screen)
Thapsigargin = compound: C/C=C(/C)C(=O)O[C@H]1C(C)=C2[C@H]([C@@H]1OC(=O)CCCCCCC)[C@@](C)(OC(C)=O)C[C@H](OC(=O)CCC)[C@@]1(O)[C@H]2OC(=O)[C@@]1(C)O [Thapsigargin]; conditions: top dose 0.512 µM; top dose inferred
Method: (§1)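 Human cancer cell lines in 384-well plates, medium with 10% serum, drug for 72 h over a 256-fold dose range (nine 2-fold or five 4-fold steps up to the top dose). Adherent lines were fixed and stained with the nucleic acid dye Syto60, suspension lines read with resazurin; signal relative to control wells, capped at 0 and 100%. One two-parameter sigmoid per drug and line, fitted in a mixed model over all curves with the slope shared within a line.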

QL-X-138 = compound: C=CC(=O)Nc1cc(-n2c(=O)ccc3cnc4ccc(-c5cn[nH]c5)cc4c32)ccc1C [QL-X-138]; conditions: top dose 10.24 µM; top dose inferred
Method: as §1

GSK269962A = compound: CCn1c(-c2nonc2N)nc2cnc(Oc3cccc(NC(=O)c4ccc(OCCN5CCOCC5)cc4)c3)cc21 [GSK269962A]; conditions: top dose inferred
Method: as §1

MPS-1-IN-1 = compound: COc1cc(N2CCC(O)CC2)ccc1Nc1cc(Nc2ccccc2S(=O)(=O)C(C)C)c2cc[nH]c2n1 [MPS-1-IN-1]; conditions: top dose 20 µM; top dose inferred
Method: as §1

(5Z)-7-Oxozeaenol = compound: COc1cc(O)c2c(c1)/C=C/C[C@H](O)[C@H](O)C(=O)/C=C\C[C@H](C)OC2=O [(5Z)-7-Oxozeaenol]; conditions: top dose 10 µM; top dose inferred
Method: as §1

CP466722 = compound: COc1cc2ncnc(-n3nc(-c4ccccn4)nc3N)c2cc1OC [CP466722]; conditions: top dose 16 µM; top dose inferred
Method: as §1

Zibotentan = compound: COc1nc(C)cnc1NS(=O)(=O)c1cccnc1-c1ccc(-c2nnco2)cc1 [Zibotentan]; conditions: top dose 20 µM; top dose inferred
Method: as §1

ABT-888 = compound: C[C@]1(c2nc3c(C(N)=O)cccc3[nH]2)CCCN1 [ABT-888]; conditions: top dose 5 µM; top dose inferred
Method: as §1

CMK = compound: Cc1ccc(-c2c(C(=O)CCl)n(CCCO)c3ncnc(N)c23)cc1 [CMK]; conditions: top dose 4 µM; top dose inferred
Method: as §1

ABT-869 = compound: Cc1ccc(F)c(NC(=O)Nc2ccc(-c3cccc4[nH]nc(N)c34)cc2)c1 [ABT-869]; conditions: top dose 1.024 µM; top dose inferred
Method: as §1

CHIR-99021 = compound: Cc1cnc(-c2cnc(NCCNc3ccc(C#N)cn3)nc2-c2ccc(Cl)cc2Cl)[nH]1 [CHIR-99021]
Method: as §1

KU-55933 = compound: O=c1cc(-c2cccc3c2Sc2ccccc2S3)oc(N2CCOCC2)c1 [KU-55933]; conditions: top dose 10 µM
Method: as §1

[1] = top dose 2.5 µM, screen: GDSC drug entry 127
[2] = top dose 5 µM, screen: GDSC drug entry 1192
[3] = top dose 2.56 µM, screen: GDSC drug entry 154
[4] = top dose 10 µM, screen: GDSC drug entry 1241, top dose inferred

Cell Line	AUC (Thapsigargin)	IC50 (Thapsigargin) [µM]	AUC (QL-X-138)	IC50 (QL-X-138) [µM]	AUC (GSK269962A; [1])	IC50 (GSK269962A; [1]) [µM]	AUC (GSK269962A; [2])	IC50 (GSK269962A; [2]) [µM]	AUC (MPS-1-IN-1)	IC50 (MPS-1-IN-1) [µM]	AUC ((5Z)-7-Oxozeaenol)	IC50 ((5Z)-7-Oxozeaenol) [µM]	AUC (CP466722)	IC50 (CP466722) [µM]	AUC (Zibotentan)	IC50 (Zibotentan) [µM]	AUC (ABT-888)	IC50 (ABT-888) [µM]	AUC (CMK)	IC50 (CMK) [µM]	AUC (ABT-869)	IC50 (ABT-869) [µM]	AUC (CHIR-99021; [3])	IC50 (CHIR-99021; [3]) [µM]	AUC (CHIR-99021; [4])	IC50 (CHIR-99021; [4]) [µM]	AUC (KU-55933)	IC50 (KU-55933) [µM]
LS-411N (large intestine, adherent)	0.399	0.0159	0.702	2.7	0.948	> 2.5	0.862	> 5	0.789	11	0.612	1.36	0.778	7.98	0.977	> 20	0.946	> 5	0.915	> 4	0.975	> 1.02	0.965	> 2.56	0.959	> 10	0.969	> 10
LXF-289 (lung adenocarcinoma, adherent)	0.043	< 0.002	0.821	5.78	0.937	> 2.5	0.824	2.91	0.926	> 20	0.831	6.2	0.717	4.06	0.985	> 20	0.973	> 5	0.924	> 4	0.982	> 1.02	0.97	> 2.56	0.885	> 10	0.892	> 10
ML-2 (acute myeloid leukaemia, suspension)	0.387	0.0163	0.384	0.319	0.79	0.98	0.55	0.42	0.693	4.06	0.469	0.519	0.674	2.87	0.98	> 20	0.984	> 5	0.921	> 4	0.971	> 1.02	0.99	> 2.56	0.988	> 10	0.984	> 10
NAMALWA (Burkitt lymphoma, suspension)	0.397	0.0176	0.465	0.523	0.984	> 2.5	0.964	> 5	0.857	12.4	0.7	2.05	0.674	2.8	0.991	> 20	0.984	> 5	0.809	1.7	0.99	> 1.02	0.988	> 2.56	0.933	> 10	0.96	> 10
NB14 (neuroblastoma, adherent)	0.248	0.00634	0.892	> 10.2	0.974	> 2.5	0.736	1.4	0.44	0.867	0.52	0.708	0.846	10.7	0.988	> 20	0.988	> 5	0.939	> 4	0.989	> 1.02	0.955	> 2.56	0.894	> 10	0.944	> 10
NCI-H23 (lung adenocarcinoma, adherent)	0.807	0.26	0.913	> 10.2	0.979	> 2.5	0.976	> 5	0.922	> 20	0.556	0.889	0.792	7.17	0.988	> 20	0.979	> 5	0.838	2.66	0.987	> 1.02	0.982	> 2.56	0.967	> 10	0.978	> 10
NCI-H82 (small cell lung carcinoma, suspension)	0.436	0.0216	0.874	9.07	0.948	> 2.5	0.983	> 5	0.907	> 20	0.886	> 10	0.826	9.02	0.989	> 20	0.99	> 5	0.924	> 4	0.989	> 1.02	0.96	> 2.56	0.985	> 10	0.897	> 10
NCI-H526 (small cell lung carcinoma, suspension)	0.53	0.0384	0.792	4.41	0.947	> 2.5	0.976	> 5	0.893	> 20	0.978	> 10	0.987	> 16	0.989	> 20	0.989	> 5	0.98	> 4	0.989	> 1.02	0.948	> 2.56	0.988	> 10	0.97	> 10
NCI-H1155 (large cell lung carcinoma, suspension)	0.873	0.346	0.886	7.84	0.96	> 2.5	0.774	1.62	0.954	> 20	0.84	5.2	0.902	14.2	0.992	> 20	0.992	> 5	0.984	> 4	0.991	> 1.02	0.993	> 2.56	0.989	> 10	0.95	> 10
NEC8 (testis, adherent)	0.317	0.0108	0.876	7.56	0.986	> 2.5	0.983	> 5	0.933	> 20	0.772	3.3	0.871	11.3	0.991	> 20	0.973	> 5	0.95	> 4	0.99	> 1.02	0.984	> 2.56	0.925	> 10	0.944	> 10
NOMO-1 (acute myeloid leukaemia, suspension)	0.966	> 0.512	0.613	1.37	0.913	> 2.5	0.907	> 5	0.751	7.41	0.537	0.801	0.703	4.08	0.98	> 20	0.907	> 5	0.977	> 4	0.857	1.02	0.978	> 2.56	0.957	> 10	0.852	9.39
OCI-AML2 (acute myeloid leukaemia, suspension)	0.308	0.0109	0.705	2.04	0.953	> 2.5	0.942	> 5	0.78	6.18	0.04	< 0.0391	0.682	2.79	0.994	> 20	0.994	> 5	0.92	3.34	0.992	> 1.02	0.989	> 2.56	0.994	> 10	0.984	> 10
OCI-AML3 (acute myeloid leukaemia, suspension)	0.737	0.134	0.497	0.631	0.978	> 2.5	0.788	1.86	0.869	14.1	0.322	0.216	0.843	9.08	0.989	> 20	0.98	> 5	0.991	> 4	0.991	> 1.02	0.991	> 2.56	0.99	> 10	0.987	> 10
OCI-M1 (acute myeloid leukaemia, suspension)	0.482	0.0289	0.388	0.34	0.782	0.797	0.969	> 5	0.954	> 20	0.836	4.55	0.801	5.76	0.993	> 20	0.994	> 5	0.931	4	0.995	> 1.02	0.993	> 2.56	0.889	6.76	0.993	> 10
OVCAR-4 (ovary, adherent)	0.201	0.00256	0.798	7.98	0.898	> 2.5	0.896	> 5	0.928	> 20	0.675	2.45	0.779	10.2	0.975	> 20	0.962	> 5	0.812	3.63	0.96	> 1.02	0.947	> 2.56	0.931	> 10	0.925	> 10
PSN1 (pancreas, adherent)	0.092	< 0.002	0.791	3.81	0.936	> 2.5	0.933	> 5	0.767	6.33	0.208	0.104	0.702	3.32	0.99	> 20	0.99	> 5	0.813	1.75	0.986	> 1.02	0.99	> 2.56	0.96	> 10	0.949	> 10
RH-1 (rhabdomyosarcoma, adherent)	0.302	0.00991	0.683	1.88	0.98	> 2.5	0.955	> 5	0.65	3.01	0.745	2.71	0.698	3.22	0.991	> 20	0.992	> 5	0.992	> 4	0.991	> 1.02	0.992	> 2.56	0.975	> 10	0.972	> 10
